Measured values taken from PubChem BioAssay AID624171 (National Center for Advancing Translational Sciences (NCATS), 2012).
The whole screen tested about 410,000 compounds, of which about 1,200 (0.29%) were called active. Inconclusive results, whose numbers are uncertain, are shown with a selection of clear calls. The call rests on the fitted dose curve; in most records, active means well fitted activation curve with a large enough effect; inconclusive means small, poorly fitted or top-dose-only effect; inactive means flat fitted curve, though single readings scatter. Potencies beside an inconclusive call are fits to weak or partial responses and may not hold up.
Potency means the concentration at half of the fitted maximal effect; tags describe the fitted curve by direction and shape.

Test: qHTS of Nrf2 Activators; further: nearly all actives have a fitted effect of over 65% in size
Conditions: AREc32 ARE-luciferase reporter (MCF7-derived line), luminescence, 24 h; series mostly up to 46.1 µM
Procedure, shortened: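 Luminescent ARE reporter assay in AREc32_Fluc cells: overnight plating at 37 deg C, 24 hr compound incubation, Steady-Glo added, 30 min RT before reading.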
In the case of `Cc1[nH]c(-c2ccc(F)cc2)cc1C(=O)N1CCN(c2ccccc2)CC1`, the Potency is reported as “inactive”.
For `Cc1ccc(C)c(S(=O)(=O)N2CCCCC2CCNC(=O)C(=O)NCc2ccco2)c1` (stereo not drawn), the Potency was inconclusive: 20 µM [activator, single point].
With `Cc1[nH]nc(N=CC2=C(O)CC(c3ccco3)CC2=O)c1-c1ccccc1` (stereo not drawn) the Potency was inconclusive: 14.1 µM [activator, partial curve, poor fit].
For `O=C(NN1C(=O)C2C(c3ccccc3)C=CC(c3ccccc3)C2C1=O)c1ccccc1` (stereo not drawn), the Potency was “inactive”.
In the case of `O=Cc1c(Nc2cccc(C(F)(F)F)c2)nc2ccccn2c1=O`, the Potency is reported as inconclusive: 3.98 µM [activator, partial curve, poor fit].
With `O=C1CC(/C=C/c2ccc(Cl)cc2)=Nc2ccccc2N1` the Potency was inconclusive: 14.1 µM [activator, partial curve, poor fit].
In the case of `COCCNC(=O)/C(C#N)=C/c1cc(C(C)C)c(OC)cc1C`, the Potency is reported as “inactive”.
In the case of `O=C(Nc1cc(-c2ccccc2)cs1)c1ccco1`, the Potency is reported as inconclusive: 12.6 µM [activator, single point].
In the case of `O=C1/C(=C/c2ccccc2)CCc2ccc(Cl)nc21`, the Potency is reported as inconclusive: 6.31 µM [activator, partial curve, poor fit].
For `CCC(=O)Nc1nnc(S(=O)(=O)N(C)Cc2ccccc2)s1`, the Potency was “inactive”.
With `O=C(/C=C/c1c(F)cccc1Cl)Nc1ncccn1` the Potency was active: 7.94 µM.
In the case of `N=c1oc2ccccc2cc1-c1nc(-c2ccccc2)cs1`, the Potency is reported as inconclusive: 5.01 µM [activator, full curve].
For `COCCn1c(SCC(=O)Nc2ccc(F)c(Cl)c2)nc2c(oc3ccccc32)c1=O`, the Potency was “inactive”.
With `Cc1ccnc(NC(=O)/C=C/c2cccs2)c1` the Potency was inconclusive: 14.1 µM [activator, partial curve, poor fit].
In the case of `O=C(Nc1ccccc1Oc1ccccc1)c1cc([N+](=O)[O-])ccc1Cl`, the Potency is reported as inconclusive: 12.6 µM [activator, partial curve, poor fit].
With `Cc1cc(=O)oc2cc(OCC(=O)Nc3c(C)n(C)n(-c4ccccc4)c3=O)c(Cl)cc12` the Potency was “inactive”.
In the case of `Cc1ccc(N(C)S(=O)(=O)c2cccc(C(=O)OCC(=O)c3c(N)n(C)c(=O)n(C)c3=O)c2)cc1`, the Potency is reported as “inactive”.
In the case of `O=C(CCNc1cccc(Cl)c1)c1cccs1`, the Potency is reported as inconclusive: 17.8 µM [activator, partial curve, poor fit].
For `COc1ccc(Cl)cc1NS(=O)(=O)c1cc(-c2cc(C)no2)ccc1C`, the Potency was “inactive”.
With `Cn1cc([N+](=O)[O-])c(C(=O)Nc2ccc(-c3nc4ccccc4o3)cc2)n1` the Potency was active: 5.01 µM.
For `CCOC(=O)c1ccc(NC(=O)C2Cc3ccccc3CN2S(=O)(=O)c2ccc(Cl)cc2)cc1` (stereo not drawn), the Potency was “inactive”.
With `CN(Cc1cc(Cl)cc(Cl)c1O)Cc1c(O)ccc2ccccc12` the Potency was inconclusive: 22.4 µM [activator, single point].
For `COc1cccc(NC(=O)c2cc([N+](=O)[O-])ccc2NCc2cccnc2)c1`, the Potency was “inactive”.
For `O=C(Nc1cccc(C(F)(F)F)c1)Oc1ccc(Cl)c2cccnc12`, the Potency was “inactive”.
In the case of `CCCCNC(=O)CSc1nc2ccc(Nc3nc(N4CCOCC4)nc(N4CCOCC4)n3)cc2s1`, the Potency is reported as “inactive”.
With `O=C(NC(=S)Nc1c(Cl)ccc2nsnc12)c1ccccc1F` the Potency was inconclusive: 31.6 µM [activator, single point].
For `CCC(C)(C)NC(=O)C(c1ccccc1)N(Cc1cccs1)C(=O)Cn1nnc2ccccc21` (stereo not drawn), the Potency was “inactive”.
With `CCCN(CCC)S(=O)(=O)c1ccc(Cl)c([N+](=O)[O-])c1` the Potency was inconclusive: 22.4 µM [activator, single point].
With `CCOC(=O)c1c(C)oc2c1c1c(c3ccccc32)OCN(CCCC(=O)O)C1` the Potency was inconclusive: 11.2 µM [activator, partial curve].
With `O=C(Nc1cccc2cccnc12)c1ccc(F)cc1` the Potency was active: 12.6 µM.
With `O=C(Oc1cccc2c(O)cccc12)c1ccccc1Cl` the Potency was inconclusive: 10 µM [activator, partial curve].
With `Cc1ccc(C)c(S(=O)(=O)N2CCC3(CC2)OCCN3S(=O)(=O)c2cccs2)c1` the Potency was “inactive”.
With `O=S(=O)(c1ccccc1)N1CCC(c2ccncc2)CC1` the Potency was “inactive”.
In the case of `CC1(C)Cc2cccc(C(=O)NC3CCN(Cc4ccccc4)CC3)c2O1`, the Potency is reported as “inactive”.
With `CC12CCC(C(=O)N(CSC(=S)N/N=C\c3ccccc3O)C1=O)C2(C)C` (stereo not drawn) the Potency was inconclusive: 35.5 µM [activator, single point].
For `Oc1[nH]c(N=C2N=c3ccccc3=N2)c2ccccc12`, the Potency was active: 5.62 µM.
With `Cc1nn(-c2ccccc2)c(Cl)c1/C=C1/C(=N)N2N=C(C(C)C)SC2=NC1=O` the Potency was inconclusive: 25.1 µM [activator, partial curve, poor fit].
In the case of `O=C(Nc1cc(F)ccc1F)C1COc2ccccc2C1` (stereo not drawn), the Potency is reported as “inactive”.
In the case of `Cc1ccc(S(=O)(=O)N2CCC(C(=O)Nc3ccccc3N3CCCC3)CC2)cc1C`, the Potency is reported as “inactive”.
With `COC(=O)[C@@]1(Cc2ccc(OC)cc2)[C@@H]2C(=CC(=O)[C@H]2CC(=O)C(=O)N(C)C)CN1C(=O)c1ccccc1` the Potency was inconclusive: 28.2 µM [activator, single point].
With `COc1ccc(NC(=O)c2sccc2-n2cccc2)cc1` the Potency was inconclusive: 11.2 µM [activator, single point].
In the case of `Cc1ccc(NC(=O)c2sccc2C)nc1`, the Potency is reported as inconclusive: 17.8 µM [activator, single point].
With `CS(=O)(=O)c1ccc(Cl)c(NC(=O)COC(=O)c2c(Cl)cccc2Cl)c1` the Potency was “inactive”.
For `O=C(Nc1nnc([C@@H]2C[C@H](O)[C@@H](CO)O2)s1)c1cccc(OC(F)(F)F)c1`, the Potency was inconclusive: 10 µM [activator, partial curve, poor fit].
In the case of `O=C(Cn1cnc2c(nc3n2CCCCC3)c1=O)Nc1ccc(F)cc1`, the Potency is reported as “inactive”.
In the case of `CCOC(=O)c1c(C)n(C)c2ccc(OCC(O)Cn3nc(C)cc3C)cc12` (stereo not drawn), the Potency is reported as “inactive”.
In the case of `Cc1nn(-c2ccc(Cl)cc2)c(Cl)c1/C=C(\C#N)C(N)=O`, the Potency is reported as inconclusive: 22.4 µM [activator, single point].
For `O=C(NNc1ccccc1)OCc1ccccc1`, the Potency was “inactive”.
